Results: US20070116784A1, “Imatinib combinations for head and neck cancers” (priority 2003, published 2007)
Read-outs that look alike come from different tables or passages of the source.

What was measured:
Assay in all cases: Growth inhibition assay (SRB)
Assay type in all cases: cell-based, human
HN5 ACC primary culture = conditions: 5-7 days
FaDu = conditions: 5-7 days
Cal27 = conditions: Cal27, 5-7 days
[1] = Homo sapiens, CAL-27, read-out: IC50

SMILES	IC50 (HN5 ACC primary culture; read-out: IC50) [nM]	IC50 (FaDu; read-out: IC50) [nM]	IC50 (Cal27; read-out: IC50) [nM]	IC50 (HN5 ACC primary culture; Homo sapiens, read-out: IC50)	IC50 (FaDu; Homo sapiens, read-out: IC50)	IC50 (Cal27; [1])	also measured
COc1cccc2c1C(=O)c1c(O)c3c(c(O)c1C2=O)C[C@@](O)(C(=O)CO)C[C@@H]3O[C@H]1C[C@H](N)[C@H](O)[C@H](C)O1 [Adr]	80	40	20				
N.N.[Cl][Pt][Cl] [Cisp, cisplatin]	3300	2400	7400				
O=c1[nH]cc(F)c(=O)[nH]1 [Compound 5FU, 5 fluorouracil]				2200 nM	3700 nM	4400 nM	
Nc1ccn([C@@H]2O[C@H](CO)[C@@H](O)C2(F)F)c(=O)n1 [Gem, gemcitabine]				3.98 nM	4.05 nM	7 nM	
CO[C@@]12[C@H](COC(N)=O)C3=C(C(=O)C(C)=C(N)C3=O)N1C[C@@H]1N[C@@H]12 [MMC, mitomycin C]	730	50	50				
N[C@@H](Cc1ccc(N(CCCl)CCCl)cc1)C(=O)O [Mel, melphalan]					6400 nM	11300 nM	
CC(=O)O[C@H]1C(=O)[C@@]2(C)[C@H]([C@H](OC(=O)c3ccccc3)[C@]3(O)C[C@H](OC(=O)[C@H](O)[C@@H](NC(=O)c4ccccc4)c4ccccc4)C(C)=C1C3(C)C)[C@]1(OC(C)=O)CO[C@@H]1C[C@@H]2O [Taxol, 5(beta),20-Epoxy-1,2(alpha),4,7(beta), 10(beta), b 13(alpha)-hexahydroxytax-11-en-9-one4,10-diacetate 2-benzoate 13-ester with (2R ,3S )-N-benzoyl-3-phenylisoserine]				2.4 ng/mL	2.1 ng/mL	3.8 ng/mL	
CC[C@]1(O)C[C@@H]2CN(CCc3c([nH]c4ccccc34)[C@@](C(=O)OC)(c3cc4c(cc3OC)N(C)[C@H]3[C@@](O)(C(=O)OC)[C@H](OC(C)=O)[C@]5(CC)C=CCN6CC[C@]43[C@@H]65)C2)C1 [VBL, vinblastin]							IC50 (HN5 ACC primary culture): 0.3 ng/mL; IC50 (FaDu): 0.1 ng/mL; IC50 (Cal27): 0.2 ng/mL
